Among the data in PMC6527243 are binding values, retold here.

Test [1] concerns the target T1, Myc-C-terminal-cleavage-product of MYRF (aa587-1139) (UniProt Q3UR85).
T1 sequence: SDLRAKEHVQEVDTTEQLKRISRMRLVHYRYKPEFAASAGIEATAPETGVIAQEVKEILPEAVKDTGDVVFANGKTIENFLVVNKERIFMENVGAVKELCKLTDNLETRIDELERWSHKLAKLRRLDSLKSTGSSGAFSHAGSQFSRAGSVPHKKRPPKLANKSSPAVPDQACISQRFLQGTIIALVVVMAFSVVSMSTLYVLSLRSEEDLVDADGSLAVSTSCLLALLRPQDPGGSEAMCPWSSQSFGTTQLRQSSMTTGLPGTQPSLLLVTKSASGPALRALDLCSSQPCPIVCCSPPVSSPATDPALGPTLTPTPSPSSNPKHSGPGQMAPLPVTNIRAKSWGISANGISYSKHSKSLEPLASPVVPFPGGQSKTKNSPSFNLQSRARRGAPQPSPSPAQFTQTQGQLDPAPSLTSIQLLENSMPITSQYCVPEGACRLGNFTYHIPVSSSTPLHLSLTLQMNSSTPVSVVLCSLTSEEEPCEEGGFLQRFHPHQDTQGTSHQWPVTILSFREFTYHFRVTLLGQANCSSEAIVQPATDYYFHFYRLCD
Put plainly: co-IP; HEK293T cells co-transfected with HA-TMEM98 and Myc-MYRF constructs; lysis in 20 mM Tris pH 7.5, 150 mM NaCl, 1% Triton X-100, 1 mM EDTA, 1 mM EGTA; immunoprecipitation with mouse anti-Myc (4A6) and Dynabeads Protein G at 4 C; blot against HA.

The target of test [2] is T2, full-length myc-MYRF (un-cleaved form) (UniProt Q3UR85).
T2 sequence: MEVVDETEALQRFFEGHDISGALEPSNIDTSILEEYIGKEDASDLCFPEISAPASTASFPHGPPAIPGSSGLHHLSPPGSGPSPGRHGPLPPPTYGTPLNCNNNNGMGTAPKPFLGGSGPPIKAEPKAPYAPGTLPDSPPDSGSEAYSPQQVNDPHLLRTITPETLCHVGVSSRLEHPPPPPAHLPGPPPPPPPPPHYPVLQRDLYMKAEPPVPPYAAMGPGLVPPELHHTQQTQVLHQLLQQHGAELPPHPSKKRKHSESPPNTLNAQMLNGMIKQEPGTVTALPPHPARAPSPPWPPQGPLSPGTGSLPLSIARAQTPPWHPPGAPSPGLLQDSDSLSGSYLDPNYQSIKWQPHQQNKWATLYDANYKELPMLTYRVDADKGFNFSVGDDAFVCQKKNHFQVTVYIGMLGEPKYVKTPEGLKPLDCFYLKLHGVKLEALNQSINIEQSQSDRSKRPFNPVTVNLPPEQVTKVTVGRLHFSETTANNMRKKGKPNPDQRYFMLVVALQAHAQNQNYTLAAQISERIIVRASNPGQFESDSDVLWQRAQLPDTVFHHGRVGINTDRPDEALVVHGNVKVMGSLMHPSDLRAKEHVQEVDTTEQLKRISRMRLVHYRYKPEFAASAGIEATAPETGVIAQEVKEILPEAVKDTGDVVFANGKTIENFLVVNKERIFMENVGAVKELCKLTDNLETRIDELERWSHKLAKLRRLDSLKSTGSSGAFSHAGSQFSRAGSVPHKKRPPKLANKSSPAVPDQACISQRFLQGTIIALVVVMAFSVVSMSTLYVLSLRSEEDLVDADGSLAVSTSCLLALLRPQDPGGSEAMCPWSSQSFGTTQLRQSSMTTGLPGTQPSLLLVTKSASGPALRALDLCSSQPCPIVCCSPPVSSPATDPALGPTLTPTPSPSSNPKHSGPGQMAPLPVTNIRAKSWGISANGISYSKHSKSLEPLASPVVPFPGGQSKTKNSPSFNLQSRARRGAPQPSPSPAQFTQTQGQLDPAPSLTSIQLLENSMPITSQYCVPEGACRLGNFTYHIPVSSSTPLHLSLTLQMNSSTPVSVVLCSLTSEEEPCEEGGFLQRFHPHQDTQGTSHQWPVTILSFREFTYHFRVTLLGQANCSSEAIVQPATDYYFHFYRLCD
The description is as above.

Test [3] concerns the target T3, Myc-MYRF 1-846 (un-cleaved form) (UniProt Q3UR85).
T3 sequence: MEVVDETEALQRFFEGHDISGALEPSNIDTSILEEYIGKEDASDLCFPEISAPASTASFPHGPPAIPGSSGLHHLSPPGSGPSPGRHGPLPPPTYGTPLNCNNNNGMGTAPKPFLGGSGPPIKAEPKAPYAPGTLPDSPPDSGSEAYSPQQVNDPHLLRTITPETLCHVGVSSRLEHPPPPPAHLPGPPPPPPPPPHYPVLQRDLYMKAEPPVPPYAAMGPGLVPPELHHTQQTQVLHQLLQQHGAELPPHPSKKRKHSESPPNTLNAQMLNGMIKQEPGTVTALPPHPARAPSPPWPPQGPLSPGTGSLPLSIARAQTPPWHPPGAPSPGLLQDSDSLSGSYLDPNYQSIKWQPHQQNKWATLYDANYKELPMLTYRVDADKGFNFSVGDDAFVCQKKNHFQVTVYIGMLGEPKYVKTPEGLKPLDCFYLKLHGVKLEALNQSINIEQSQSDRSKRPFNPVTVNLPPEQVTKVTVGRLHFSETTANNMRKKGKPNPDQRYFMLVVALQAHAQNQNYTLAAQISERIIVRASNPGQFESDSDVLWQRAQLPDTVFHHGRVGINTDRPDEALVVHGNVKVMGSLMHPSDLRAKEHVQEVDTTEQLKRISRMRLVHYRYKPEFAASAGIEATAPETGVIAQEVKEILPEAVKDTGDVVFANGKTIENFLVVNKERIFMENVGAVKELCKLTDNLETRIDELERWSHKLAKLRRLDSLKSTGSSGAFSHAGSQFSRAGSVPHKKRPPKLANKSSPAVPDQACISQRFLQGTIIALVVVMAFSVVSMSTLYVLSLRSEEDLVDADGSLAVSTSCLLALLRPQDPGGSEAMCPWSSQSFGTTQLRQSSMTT
The description is as above.

The target in test [4] is T4, HA-tagged TMEM98 (UniProt Q91X86).
T4 sequence: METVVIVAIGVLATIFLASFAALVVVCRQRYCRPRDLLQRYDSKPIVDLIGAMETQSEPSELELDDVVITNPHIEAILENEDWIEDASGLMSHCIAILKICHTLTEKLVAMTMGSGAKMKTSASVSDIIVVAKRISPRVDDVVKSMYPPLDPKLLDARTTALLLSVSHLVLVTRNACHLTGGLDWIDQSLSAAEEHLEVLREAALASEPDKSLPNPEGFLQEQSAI
Put plainly: co-IP; HEK293T cells co-transfected with HA-TMEM98 and Myc-MYRF constructs; lysis in 20 mM Tris pH 7.5, 150 mM NaCl, 1% Triton X-100, 1 mM EDTA, 1 mM EGTA; immunoprecipitation with rat anti-HA (3F10) and Dynabeads Protein G at 4 C; blot against Myc.

These are yes or no findings as the source states them, for the method shown. In cells and extracts the contact can be indirect. Some entries that bind do so weakly or less than the wild type. Where a sequence is shown, tags or fusion partners need not be part of it.

B1: HA-tagged TMEM98 (protein, UniProt Q91X86 1-226)
chain: METVVIVAIGVLATIFLASFAALVVVCRQRYCRPRDLLQRYDSKPIVDLIGAMETQSEPSELELDDVVITNPHIEAILENEDWIEDASGLMSHCIAILKICHTLTEKLVAMTMGSGAKMKTSASVSDIIVVAKRISPRVDDVVKSMYPPLDPKLLDARTTALLLSVSHLVLVTRNACHLTGGLDWIDQSLSAAEEHLEVLREAALASEPDKSLPNPEGFLQEQSAI
Take B1: the binding result in test [1], in test [2] and in test [3] was “binds” each time.

B2: MYRF N-terminal cleavage product (Myc-tagged) (domain or fragment, UniProt Q3UR85 1-586)
chain: MEVVDETEALQRFFEGHDISGALEPSNIDTSILEEYIGKEDASDLCFPEISAPASTASFPHGPPAIPGSSGLHHLSPPGSGPSPGRHGPLPPPTYGTPLNCNNNNGMGTAPKPFLGGSGPPIKAEPKAPYAPGTLPDSPPDSGSEAYSPQQVNDPHLLRTITPETLCHVGVSSRLEHPPPPPAHLPGPPPPPPPPPHYPVLQRDLYMKAEPPVPPYAAMGPGLVPPELHHTQQTQVLHQLLQQHGAELPPHPSKKRKHSESPPNTLNAQMLNGMIKQEPGTVTALPPHPARAPSPPWPPQGPLSPGTGSLPLSIARAQTPPWHPPGAPSPGLLQDSDSLSGSYLDPNYQSIKWQPHQQNKWATLYDANYKELPMLTYRVDADKGFNFSVGDDAFVCQKKNHFQVTVYIGMLGEPKYVKTPEGLKPLDCFYLKLHGVKLEALNQSINIEQSQSDRSKRPFNPVTVNLPPEQVTKVTVGRLHFSETTANNMRKKGKPNPDQRYFMLVVALQAHAQNQNYTLAAQISERIIVRASNPGQFESDSDVLWQRAQLPDTVFHHGRVGINTDRPDEALVVHGNVKVMGSLMHP
Turning to B2, the binding entry in test [4] is listed as “no binding”.

B3: full-length myc-MYRF (un-cleaved form) (protein, UniProt Q3UR85 1-1138)
chain: MEVVDETEALQRFFEGHDISGALEPSNIDTSILEEYIGKEDASDLCFPEISAPASTASFPHGPPAIPGSSGLHHLSPPGSGPSPGRHGPLPPPTYGTPLNCNNNNGMGTAPKPFLGGSGPPIKAEPKAPYAPGTLPDSPPDSGSEAYSPQQVNDPHLLRTITPETLCHVGVSSRLEHPPPPPAHLPGPPPPPPPPPHYPVLQRDLYMKAEPPVPPYAAMGPGLVPPELHHTQQTQVLHQLLQQHGAELPPHPSKKRKHSESPPNTLNAQMLNGMIKQEPGTVTALPPHPARAPSPPWPPQGPLSPGTGSLPLSIARAQTPPWHPPGAPSPGLLQDSDSLSGSYLDPNYQSIKWQPHQQNKWATLYDANYKELPMLTYRVDADKGFNFSVGDDAFVCQKKNHFQVTVYIGMLGEPKYVKTPEGLKPLDCFYLKLHGVKLEALNQSINIEQSQSDRSKRPFNPVTVNLPPEQVTKVTVGRLHFSETTANNMRKKGKPNPDQRYFMLVVALQAHAQNQNYTLAAQISERIIVRASNPGQFESDSDVLWQRAQLPDTVFHHGRVGINTDRPDEALVVHGNVKVMGSLMHPSDLRAKEHVQEVDTTEQLKRISRMRLVHYRYKPEFAASAGIEATAPETGVIAQEVKEILPEAVKDTGDVVFANGKTIENFLVVNKERIFMENVGAVKELCKLTDNLETRIDELERWSHKLAKLRRLDSLKSTGSSGAFSHAGSQFSRAGSVPHKKRPPKLANKSSPAVPDQACISQRFLQGTIIALVVVMAFSVVSMSTLYVLSLRSEEDLVDADGSLAVSTSCLLALLRPQDPGGSEAMCPWSSQSFGTTQLRQSSMTTGLPGTQPSLLLVTKSASGPALRALDLCSSQPCPIVCCSPPVSSPATDPALGPTLTPTPSPSSNPKHSGPGQMAPLPVTNIRAKSWGISANGISYSKHSKSLEPLASPVVPFPGGQSKTKNSPSFNLQSRARRGAPQPSPSPAQFTQTQGQLDPAPSLTSIQLLENSMPITSQYCVPEGACRLGNFTYHIPVSSSTPLHLSLTLQMNSSTPVSVVLCSLTSEEEPCEEGGFLQRFHPHQDTQGTSHQWPVTILSFREFTYHFRVTLLGQANCSSEAIVQPATDYYFHFYRLCD
For the molecule B3, in test [4], the binding entry was “binds”.

B4: Myc-MYRF 1-846 (un-cleaved form) (domain or fragment, UniProt Q3UR85 1-846)
chain: MEVVDETEALQRFFEGHDISGALEPSNIDTSILEEYIGKEDASDLCFPEISAPASTASFPHGPPAIPGSSGLHHLSPPGSGPSPGRHGPLPPPTYGTPLNCNNNNGMGTAPKPFLGGSGPPIKAEPKAPYAPGTLPDSPPDSGSEAYSPQQVNDPHLLRTITPETLCHVGVSSRLEHPPPPPAHLPGPPPPPPPPPHYPVLQRDLYMKAEPPVPPYAAMGPGLVPPELHHTQQTQVLHQLLQQHGAELPPHPSKKRKHSESPPNTLNAQMLNGMIKQEPGTVTALPPHPARAPSPPWPPQGPLSPGTGSLPLSIARAQTPPWHPPGAPSPGLLQDSDSLSGSYLDPNYQSIKWQPHQQNKWATLYDANYKELPMLTYRVDADKGFNFSVGDDAFVCQKKNHFQVTVYIGMLGEPKYVKTPEGLKPLDCFYLKLHGVKLEALNQSINIEQSQSDRSKRPFNPVTVNLPPEQVTKVTVGRLHFSETTANNMRKKGKPNPDQRYFMLVVALQAHAQNQNYTLAAQISERIIVRASNPGQFESDSDVLWQRAQLPDTVFHHGRVGINTDRPDEALVVHGNVKVMGSLMHPSDLRAKEHVQEVDTTEQLKRISRMRLVHYRYKPEFAASAGIEATAPETGVIAQEVKEILPEAVKDTGDVVFANGKTIENFLVVNKERIFMENVGAVKELCKLTDNLETRIDELERWSHKLAKLRRLDSLKSTGSSGAFSHAGSQFSRAGSVPHKKRPPKLANKSSPAVPDQACISQRFLQGTIIALVVVMAFSVVSMSTLYVLSLRSEEDLVDADGSLAVSTSCLLALLRPQDPGGSEAMCPWSSQSFGTTQLRQSSMTT
As for B4, in test [4], the binding result is “binds”.
